For one molecule, GI50 and TGI results are on record in PubChem BioAssay (NCI).

The assay relates to NCI-H322M lung. Kind of assay: growth of human tumour cells (NCI), 48 h.

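Results reflect a 48-hour exposure of cells in 96-well plates to compound at five concentrations. The concentration for 50% growth inhibition is given as GI50. TGI is the concentration that stops growth completely.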

As to `CCOc1ccccc1NC(=O)N/C(N)=N/c1nc2ccccc2s1`, the GI50 is 0.0466 µM and the TGI was more than 85.9 µM.
